B1: EPRS (aa 1-168): EPRS GST-like domain alone (protein)
chain: MATLSLTVNSGDPPLGALLAVEHVKDDVSISVEEGKENILHVSENVIFTDVNSILRYLARVATTAGLYGSNLMEHTEIDHWLEFSATKLSSCDSFTSTINELNHCLSLRTYLVGNSLSLADLCVWATLKGNAAWQEQLKQKKAPVHVKRWFGFLEAQQAFQSVGTKWD
modifications: left off: small tags and cut ends
B2: EPRS (aa 1-196): N-terminal EPRS fragment containing GST-like domain and linker region L1 (protein)
chain: MATLSLTVNSGDPPLGALLAVEHVKDDVSISVEEGKENILHVSENVIFTDVNSILRYLARVATTAGLYGSNLMEHTEIDHWLEFSATKLSSCDSFTSTINELNHCLSLRTYLVGNSLSLADLCVWATLKGNAAWQEQLKQKKAPVHVKRWFGFLEAQQAFQSVGTKWDVSTTKARVAPEKKQDVGKFVELPGAEMG
B3: aa 168-269: L1 region-containing EPRS fragment (protein, UniProt P07814 168-269, looked up, fragment)
chain: DVSTTKARVAPEKKQDVGKFVELPGAEMGKVTVRFPPEASGYLHIGHAKAALLNQHYQVNFKGKLIMRFDDTNPEKEKEDFEKVILEDVAMLHIKPDQFTYT

System: IFN-β promoter

Row | Molecule | IFN-β promoter activation (antiviral activity) with N-RIG-I | IFN-β promoter activation in the presence of TRAF3, TBK1 or IRF7 | IFN-β promoter activity mediated by N-RIG-I, MDA5, poly(I:C) or MAVS
1 | EPRS: glutamyl-prolyl-tRNA synthetase protein, 1512 aa, SEQ ID NO: 63; expressed from plasmid or purified | induced marked activity of IFN-β promoter | no substantial activation of the IFN-β promoter | increased RIG-I-, MDA5-, poly(I:C)-, and MAVS-mediated activity of the IFNB promoter in a dose-dependent manner
2 | aa 168-196: EPRS L1 linker region between GST-like domain and ERS (DVSTTKARVAPEKKQDVGKFVELPGAEMG; UniProt P07814 168-196, looked up, fragment) | have antiviral effects |  | 
3 | B1 | did not induce antiviral activity |  | 
4 | B2 | induced IFN-β promoter activation comparable with that induced by full-length EPRS |  | 
5 | B3 | have antiviral effects |  | 
